Laboratory results as given in ChEMBL document CHEMBL1201862, “PubChem BioAssay data set” (2004).
“And” between values parts separate entries of the source, which are not always exact repeats. Equal entries are not always repeated. Structures can show the parent of a compound that is named as a salt.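 Protocol summary: plate cells (96-well), add compound at 5 concentrations, incubate 48 h, interpolate endpoints linearly. Abbreviation: GI50, concentration required for 50% inhibition of growth.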 The source made the active and inactive calls. Cut-off read from the data, not from the text of the source: active = GI50 up to about 1.1 µM and inactive = higher. Numbered stars: 1 amine (or outer) side, 2 acyl side, 3 side chain; on linkers, the order of the positions; unused ones are H or OH. Bridge positions count the residues as written; N and C are the ends. Square brackets hold non-standard residues; d marks the D form. Peptide text beside a SMILES is read from it. I, II: the chains in the order shown. * marks the point of attachment. ξ: configuration not given here. Actinocin(1to9) = Cc1c2oc3c(C)ccc(C(=O)[*:2])c3nc-2c(C(=O)[*:1])c(N)c1=O; Actinocin(9to1) = Cc1c2oc3c(C)ccc(C(=O)[*:1])c3nc-2c(C(=O)[*:2])c(N)c1=O; X21 = O=C(/C=C/C=C/C=C/C=C/C=C/C(=O)*)NC1=C(O)CCC1=O; ξOrn(4,5-diOH) = O=C(C(CC(O)C(O)N[*:3])N[*:1])[*:2]; ξhTyr(βξ-OH,γξ-OH) = NC(C(=O)O)C(O)C(O)c1ccc(O)cc1; X49 = CC(C)C[C@H](N[*:1])C1=N[C@H](C(=O)[*:2])CS1; ξNMePhe(4-NMe2) = CNC(Cc1ccc(N(C)C)cc1)C(=O)O; Pro(4R-Me) = C[C@H]1CN[C@H](C(=O)O)C1; X22 = O=C([C@H]1CCC[C@H]1N[*:1])[*:2]; γGlu = O=C(O)[CH](CCC(=O)[*:2])N[*:1]; ξPro(3ξ-OH,4ξ-Me) = CC1CNC(C(=O)O)C1O; X33 = O=C(c1ccc(-c2ccc(Cl)cc2Cl)o1)*; Benzoyl(4-OMe) = COc1ccc(C(=O)*)cc1; X51 = CCCCC/C=C/C/C=C\CCCCCCCC(=O)*; Picolinoyl(3-OH) = O=C(c1ncccc1O)*; X44 = O=C1CC(C(=O)[*:2])N([*:1])C1; ξPip(4-oxo) = O=C1CCNC(C(=O)O)C1; ξW = NC(Cc1c[nH]c2ccccc12)C(=O)O; Cya = N[CH](CS(=O)(=O)O)C(=O)O; Ile(3ξ) = CCC(C)[C@H](N)C(=O)O; NMeF = CN[CH](Cc1ccccc1)C(=O)O; ξLac(3-iPr) = CC(C)CC(O)C(=O)O; ξNMe2Val = CC(C)C(C(=O)*)N(C)C; X45 = CC(C)CCCCCCCC(O)CC(=O)*; 2Thi = N[CH](Cc1cccs1)C(=O)O; Allyl(1,1-Me2) = C=CC(C)(C)*; Hyp = O=C(O)[CH]1C[CH](O)CN1; Phg = N[CH](C(=O)O)c1ccccc1; NMeV = CN[CH](C(=O)O)C(C)C; NMeA = CN[CH](C)C(=O)O; Octanoyl = CCCCCCCC(=O)*; ξF = NC(Cc1ccccc1)C(=O)O; PhAc = O=C(Cc1ccccc1)*; Abu = CC[CH](N)C(=O)O; Boc = CC(C)(C)OC(=O)*; Aib = CC(C)(N)C(=O)O; Tfa = O=C(C(F)(F)F)*; ξK = NCCCCC(N)C(=O)O; ξT = CC(O)C(N)C(=O)O; ξP = O=C(O)C1CCCN1; Ava = NCCCCC(=O)O; GABA = NCCCC(=O)O; OtBu = CC(C)(C)O*; βAla = NCCC(=O)O; ξA = CC(N)C(=O)O; Mpa = O=C(O)CCS; Sar = CNCC(=O)O; tBu = CC(C)(C)*; NHOH = ON*

system: NCI-H322M; assay: DTP human tumour cell line panel, 48 h

| Structure (SMILES) | GI50 |
| --- | --- |
| Cc1c2oc3c(C)ccc(C(=O)NC4C(=O)NC(C(C)C)C(=O)N5CC(=O)CC5C(=O)N(C)CC(=O)N(C)C(C(C)C)C(=O)OC4C)c3nc-2c(C(=O)NC2C(=O)NC(C(C)C)C(=O)N3CC(=O)CC3C(=O)N(C)CC(=O)N(C)C(C(C)C)C(=O)OC2C)c(N)c1=O (stereo not drawn) (I: TV[X44][Sar][NMeV] / II: TV[X44][Sar][NMeV]; ester I:1-I:C, II:1-II:C; linker I:N-II:N via Actinocin(9to1); configuration not given here) | active: > 1 µM |
| COc1ccc(CC2NC(=O)C(NC(=O)c3c4nc5c(C(=O)NC6C(=O)NC(Cc7ccc(OC)cc7)C(=O)N7CCCC7C(=O)N(C)CC(=O)N(C)C(C(C)C)C(=O)OC6C)ccc(C)c5oc-4c(C)c(=O)c3N)C(C)OC(=O)C(C(C)C)N(C)C(=O)CN(C)C(=O)C3CCCN3C2=O)cc1 (stereo not drawn) (I: TY(Me)P[Sar][NMeV] / II: TY(Me)P[Sar][NMeV]; ester I:1-I:C, II:1-II:C; linker I:N-II:N via Actinocin(1to9); configuration not given here) | active: < 0.001 µM |
| Cc1c2oc3c(C)ccc(C(=O)NC4C(=O)NC(Cc5ccc(O)cc5)C(=O)N5CCCC5C(=O)N(C)CC(=O)N(C)C(C(C)C)C(=O)OC4C)c3nc-2c(C(=O)NC2C(=O)NC(Cc3ccc(O)cc3)C(=O)N3CCCC3C(=O)N(C)CC(=O)N(C)C(C(C)C)C(=O)OC2C)c(N)c1=O (stereo not drawn) (I: TYP[Sar][NMeV] / II: TYP[Sar][NMeV]; ester I:1-I:C, II:1-II:C; linker I:N-II:N via Actinocin(9to1); configuration not given here) | active: 0.9 µM |
| CCCCCCCC(=O)NC(C)(C)C(=O)NC(COC(C)(C)C)C(=O)NC(CC(C)C)C(=O)NC(C)(C)C(=O)NC(COC(C)(C)C)C(=O)NC(COC(C)(C)C)C(=O)NC(CC(C)C)C(=O)NC(C)(C)C(=O)NC(COC(C)(C)C)C(=O)NC(C(=O)NC(CC(C)C)C(=O)OC)C(C)CC (stereo not drawn) (Octanoyl-[Aib]S(tBu)L[Aib]S(tBu)S(tBu)L[Aib]S(tBu)IL-OMe; configuration not given here) | inactive: 7.87 µM |
| O=C(Cc1ccccc1)N[C@@H]1COC(=O)C2CCCN2C(=O)[C@@H]2CCCN2C1=O (stereo partly drawn) (PhAc-[dS]-Pro-[ξP]; ester 1-C) | inactive: > 100 µM |
| O=C(O)CC(NC(=O)C(F)(F)F)C(=O)NC(Cc1ccc(O)cc1)C(=O)O (stereo not drawn) (Tfa-Asp-Tyr-OH; configuration not given here) | inactive: > 50 µM |
| CC1NC(=O)[C@H](C)N(C)C(=O)[C@@H]2CCCN2C(=O)[C@@H](NC(=O)C(Cc2ccccc2)NC(=O)/C=C/C=C/C=C/C=C/C=C/C(=O)NC2=C(O)CCC2=O)COC(=O)[C@@H]2CCCN2C1=O (stereo partly drawn) (X21-[ξF]SP[NMeA][ξA]P; ester 2-C) | inactive: > 100 µM |
| CC1NC(=O)[C@H](C)N(C)C(=O)[C@@H]2CCCN2C(=O)[C@@H](NC(=O)C(Cc2ccccc2)NC(=O)/C=C/C=C/C=C/C=C/C=C/C(=O)NC2=C(O)CCC2=O)COC(=O)[C@@H]2C[C@@H](C)CN2C1=O (stereo partly drawn) (X21-[ξF]SP[NMeA][ξA][Pro(4R-Me)]; ester 2-C) | inactive: > 100 µM |
| COC(=O)C(CC(C)C)NC(=O)C(Cc1ccccc1)NC(=O)C1CCCN1C(=O)C(CO)NC(=O)c1ccc(-c2ccc(Cl)cc2Cl)o1 (stereo not drawn) (X33-SPFL-OMe; configuration not given here) | inactive: 16.9 µM |
| CC(C)CCCCCCCC(O)CC(=O)NC(CS(=O)(=O)O)C(=O)NC(CC(C)C)C(=O)NCCCC(=O)NC(Cc1c[nH]cn1)C(=O)NC(C)C(=O)NC1C(=O)NC(C(C)O)C(=O)NC(Cc2c[nH]cn2)C(=O)NC(C)C(=O)NC(C(C)O)C(=O)OC1C (stereo not drawn) (X45-[Cya]L[GABA]HATTHAT; ester 6-C; configuration not given here) | inactive: > 25 µM |
| CCCCC/C=C/C/C=C\CCCCCCCC(=O)NC1CC(O)C(O)NC(=O)C2C(O)C(C)CN2C(=O)C(C(C)O)NC(=O)C(C(O)C(O)c2ccc(O)cc2)NC(=O)C2CC(O)CN2C(=O)C(C(C)O)NC1=O (stereo not drawn) (X51-[ξOrn(4,5-diOH)]T[Hyp][ξhTyr(βξ-OH,γξ-OH)]T[ξPro(3ξ-OH,4ξ-Me)]; lactam 1-C; configuration not given here) | inactive: > 100 µM |
| CC(NC(=O)CCS)C(=O)NC(C)C(=O)NC(Cc1c[nH]c2ccccc12)C(=O)NC(Cc1c[nH]cn1)C(=O)NC(CO)C(=O)NC(Cc1c[nH]c2ccccc12)C(=O)NCCCCC(=O)NC(C)C(=O)NC(CCC(N)=O)C(=O)NC(CCCCN)C(=O)NC(C)C(=O)NC(CCCNC(=N)N)C(=O)NC(CCCCN)C(N)=O (stereo not drawn) ([Mpa]AAWHSW[Ava]AQKARK-NH2; configuration not given here) | inactive: > 100 µM |
| CCC(C)C1NC(=O)C(CC(C)C)NC(=O)C(C(C)C)NC(=O)C2CSSCC(NC1=O)C(=O)N2 (stereo not drawn) (cyclo(CCVLI); disulfide 1-2; configuration not given here) | active: 0.158 µM |
| CC1NC(=O)CNC(=O)CNC(=O)C(Cc2ccc(O)cc2)NC(=O)C(C(C)C)NC(=O)C(C)NC1=O (stereo not drawn) (cyclo(GGAAVY); configuration not given here) | inactive: > 100 µM |
| CCC(C)C1NC(=O)C2CCCN2C(=O)CNC(=O)C(C)NC(=O)C(Cc2ccccc2)NC(=O)C(C(C)C)NC1=O (stereo not drawn) (cyclo(GPIVFA); configuration not given here) | inactive: > 100 µM |
| C=CC(C)(C)OC[C@@H]1NC(=O)CNC(=O)[C@@H]2CCCN2C(=O)[C@H](C(C)CC)NC(=O)[C@@H]2CSC(=N2)[C@H](CC(C)C)NC1=O (stereo partly drawn) (cyclo(GS(Allyl(1,1-Me2))[X49][Ile(3ξ)]P)) | inactive: > 100 µM |
| CC(OC(C)(C)C)C1NC(=O)C(CCCCNC(=O)OC(C)(C)C)NC(=O)C(Cc2c[nH]c3ccccc23)NC(=O)C(Cc2ccccc2)NC(=O)[C@H]2CCC[C@H]2NC(=O)C(Cc2ccccc2)NC1=O (stereo partly drawn) (cyclo([X22][ξF][ξW][ξK](Boc)[ξT](tBu)[ξF])) | inactive: > 100 µM |
| CCC(C)C1NC(=O)C2CCCN2C(=O)C(CC(C)C)OC(=O)CCNC(=O)C(C)N(C)C(=O)C(C(C)C)N(C)C1=O (stereo not drawn) (cyclo([ξLac(3-iPr)]PI[NMeV][NMeA][βAla]); configuration not given here) | inactive: 10.5 µM |
| CCC(C)C(NC(=O)C(Cc1cccs1)NC(=O)C(CC(C)C)NC(=O)C(CC(C)C)NC(=O)C(CCCCN)NC(=O)C(CCCNC(=N)N)NC(=O)c1ccc(OC)cc1)C(=O)NC(CC(C)C)C(N)=O (stereo not drawn) ({Benzoyl(4-OMe)}-RKLL[2Thi]IL-NH2; configuration not given here) | inactive: > 100 µM |
| CC1=C/C(O)CC(=O)Cc2nc(co2)C(=O)N2CCC=C2C(=O)OC(C(C)C)C(C)/C=C/C(=O)NC\C=C\1.CCC1NC(=O)C(NC(=O)c2ncccc2O)C(C)OC(=O)C(c2ccccc2)NC(=O)C2CC(=O)CCN2C(=O)C(Cc2ccc(N(C)C)cc2)N(C)C(=O)C2CCCN2C1=O (stereo not drawn) ({Picolinoyl(3-OH)}-T[Abu]P[ξNMePhe(4-NMe2)][ξPip(4-oxo)][Phg]; ester 1-C; configuration not given here) | inactive: 16.7 µM |
| NC(CCC(=O)NC(CCC(=O)NO)C(=O)NCC(=O)O)C(=O)O (stereo not drawn) (γGlu-Glu(NHOH)-Gly-OH; configuration not given here) | inactive: > 100 µM |
| CC(C)C(C(=O)N(C)C(Cc1ccccc1)C(=O)N(C)C(C(=O)N(C)C(C(=O)N1CCCC1C(=O)OC(C)(C)C)C(C)C)C(C)C)N(C)C (stereo not drawn) (ξNMe2Val-[NMeF][NMeV][NMeV]P-OtBu; configuration not given here) | inactive: 65 µM |
| O=C1C(Br)=C(Br)C(=O)c2ccccc21 [2,3-Dibromo-1,4-naphthoquinone] | inactive: 28.3 µM and inactive: 16.9 µM |
